{
  "source": "PubChem BioAssay AID485344",
  "about": "(National Center for Advancing Translational Sciences (NCATS), 2010)",
  "note": "Hit rate of the full screen: of about 340,000 compounds, about 6,900 (2%) were called active. Cut-off read from the data, not from the text of the source: active = inhibition above about 30%; inactive = below that, where a call was filed. Only a part is listed here, and it is no random draw. Entries without a call were filed so in the source.",
  "data": [
    {"target": "D(2) dopamine receptor (Homo sapiens) (UniProt P14416)", "sequence (P14416 whole entry, looked up)": "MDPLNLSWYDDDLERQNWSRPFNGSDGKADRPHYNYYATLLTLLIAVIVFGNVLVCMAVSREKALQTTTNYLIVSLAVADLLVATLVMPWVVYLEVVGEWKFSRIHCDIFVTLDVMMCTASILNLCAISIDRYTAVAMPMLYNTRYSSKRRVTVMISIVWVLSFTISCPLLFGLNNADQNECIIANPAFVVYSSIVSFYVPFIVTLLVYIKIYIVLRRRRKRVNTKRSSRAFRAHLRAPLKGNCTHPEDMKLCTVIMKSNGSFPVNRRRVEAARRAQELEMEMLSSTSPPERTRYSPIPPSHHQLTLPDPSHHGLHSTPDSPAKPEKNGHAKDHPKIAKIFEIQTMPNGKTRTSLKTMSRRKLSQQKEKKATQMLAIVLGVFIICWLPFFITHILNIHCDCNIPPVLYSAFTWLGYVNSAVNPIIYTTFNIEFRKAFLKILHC", "experiment": "HTS Assay for Allosteric Antagonists of the Human D2 Dopamine Receptor: Primary Screen for Antagonists; note: 0% is about no effect", "conditions": "HEK293 TREx D2 cells, calcium flux, dopamine EC80; at 10 µM; stronger effect = higher value", "in_short": "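Measurement of antagonist activity uses fluorescent calcium dye in inducible HEK293 T-REx D2 cells: 10 s baseline, compound addition with 180 s read, EC80 dopamine addition with a further 180 s read.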", "values": [
      {"smiles": "COc1cc(OC)cc(C(=O)Nc2ccc(S(=O)(=O)N3CCCCC3c3cccnc3)cc2)c1", "note": "(stereo not drawn)", "inhibition": "20.3%"},
      {"smiles": "O=C(Nc1cccc(Cl)c1Cl)c1cc(S(=O)(=O)N2CCC3(CC2)OCCO3)ccc1F", "inhibition": "7.29%"},
      {"smiles": "Cc1cc(C)c(Cn2c3ccccc3c3cnn(CC(=O)NC4CCCCCC4)c(=O)c32)c(C)c1", "inhibition": "-6.46%"},
      {"smiles": "COc1ccc(Cn2cc(C(=O)c3ccc(Cl)cc3)c(=O)c3cc4c(cc32)OCO4)cc1", "inhibition": "-1.03%"},
      {"smiles": "CCOC(=O)c1ccc(NC(=O)c2ccc3c(c2)c(C)c(C)n3Cc2ccc(F)cc2)cc1", "inhibition": "-3.74%"},
      {"smiles": "CCOC(=O)C1(C)C=C(Nc2ccc(OC)cc2)C(=O)N1c1ccccc1", "note": "(stereo not drawn)", "inhibition": "-15.5%"},
      {"smiles": "COc1ccccc1NC(=O)c1oc2ccccc2c1NC(=O)c1c(F)cccc1F", "inhibition": "-16.8%"},
      {"smiles": "Cc1cc(C)cc(NC(=O)C2CCCN2S(=O)(=O)c2ccc3c(c2)C(C)(C)C(=O)N3C)c1", "note": "(stereo not drawn)", "inhibition": "-7.82%"},
      {"smiles": "COc1ccc(NC(=O)CSc2ncnc3sc(C)cc23)cc1", "inhibition": "active: 31.7%"},
      {"smiles": "COc1ccc(C(=O)NCCn2cc(SCC(=O)Nc3ccccc3)c3ccccc32)cc1OC", "inhibition": "3.78%"},
      {"smiles": "CN1CCc2ccccc2Cc2[nH]c3ccccc3c2CC1", "inhibition": "active: 72%"},
      {"smiles": "Cn1c(=O)n(C)c2cc(N3CCCCC3)c(NC(=O)c3ccc(Cl)cc3)cc21", "inhibition": "-17.7%"},
      {"smiles": "COc1cc(OC)c(NC(=O)c2c(C)nn(-c3ccc(C)cc3)c2-n2cccc2)cc1Cl", "inhibition": "-8.74%"},
      {"smiles": "O=C(CSCC(=O)NC1CC1)Nc1ccc2ccccc2c1", "inhibition": "active: 34.7%"},
      {"smiles": "CCCCn1cc(S(=O)(=O)c2ccc(CC)cc2)c(=O)c2cc(F)c(N3CCCC(C)C3)cc21", "note": "(stereo not drawn)", "inhibition": "0.987%"},
      {"smiles": "COc1ccccc1CCNC(=O)c1ccc(NC(=O)N2CC(C)Sc3ccccc32)cc1", "note": "(stereo not drawn)", "inhibition": "-6.77%"},
      {"smiles": "Cc1ccc(C(=O)CSc2nc3cc(C(=O)NC4CCCC4)ccc3c(=O)n2CC2CCCO2)cc1", "note": "(stereo not drawn)", "inhibition": "-0.373%"},
      {"smiles": "CSc1cccc(NS(=O)(=O)c2ccc3[nH]cc(C(=O)N4CCCC4)c(=O)c3c2)c1", "inhibition": "5.44%"},
      {"smiles": "COc1ccc(OC)c(NC(=O)c2ccc(-c3nc(CSc4ccccc4)c(C)o3)cc2)c1", "inhibition": "3.01%"},
      {"smiles": "CC(C)(C)C(=O)Cn1c(=O)n(CCCCCC(=O)NCc2ccc3c(c2)OCO3)c(=O)c2sccc21", "inhibition": "-16.6%"},
      {"smiles": "O=C(COc1ccc2c(c1)OCO2)Nc1ccc2c(c1)oc1ccccc12", "inhibition": "active: 37%"},
      {"smiles": "Cc1ccc(NC(=O)CSc2nccn2C2CCCC2)cc1", "inhibition": "-8.85%"},
      {"smiles": "Cc1ccc(NC(=O)Cn2cc(S(=O)(=O)c3ccc(F)cc3)c(=O)c3cc4c(cc32)OCO4)cc1", "inhibition": "9.66%"},
      {"smiles": "CCOc1ccccc1C1CC(=O)NC(C)=C1C(=O)OC1CCCCCC1", "note": "(stereo not drawn)", "inhibition": "5.86%"},
      {"smiles": "COc1ccc(NC(=O)C2CCCN(S(=O)(=O)c3cn(C)cn3)C2)cc1Cl", "note": "(stereo not drawn)", "inhibition": "1.13%"},
      {"smiles": "COc1ccc(-n2c3c(c(=O)[nH]c2=O)C(NC(C)=O)(C(F)(F)F)C(=O)N3)cc1", "note": "(stereo not drawn)", "inhibition": "7.17%"},
      {"smiles": "Cc1cccc(Oc2nc3ccccn3c(=O)c2/C=C(\\C#N)c2nc3ccccc3s2)c1C", "inhibition": "-2.12%"},
      {"smiles": "O=C(CSc1nc2ccccc2nc1Cc1ccc(F)cc1)Nc1ccc2c(c1)OCO2", "inhibition": "-1.74%"},
      {"smiles": "COCCNC(=O)Cn1c(=O)n(Cc2ccc(C(=O)NCCc3ccc(OC)c(OC)c3)cc2)c(=O)c2ccccc21", "inhibition": "5.29%"},
      {"smiles": "COc1cc(Cl)c(C)cc1NC(=O)CCCN1C(=O)C(c2ccccc2)Oc2cccnc21", "note": "(stereo not drawn)", "inhibition": "8.08%"},
      {"smiles": "Cc1cccc(NC(=O)CCS(=O)(=O)c2ccc3c(c2)NC(=O)CS3)n1", "inhibition": "active: 38.8%"},
      {"smiles": "COc1ccc(CCNC(=O)c2ccc3c(c2)CCN3S(=O)(=O)c2ccc(Cl)cc2)cc1", "inhibition": "16.2%"},
      {"smiles": "O=C(Nc1nnc(S(=O)(=O)N2CCCCCC2)s1)c1ccc(Br)cc1", "inhibition": "11%"},
      {"smiles": "CCN1CCc2nc(N)sc2C1", "inhibition": "active: 34.7%"},
      {"smiles": "CC(=O)c1ccc(NC2=NS(=O)(=O)c3ccccc32)cc1", "inhibition": "3.03%"},
      {"smiles": "COc1ccc2c(C)cc(SCc3c(C)noc3C)nc2c1", "inhibition": "active: 30.6%"},
      {"smiles": "COc1c(Cl)cc(C(=O)Nc2cccc(-c3nc4ccccc4[nH]3)c2)cc1Cl", "inhibition": "2.27%"},
      {"smiles": "COc1ccc(Cl)cc1NC(=O)Cn1nnc2sc3c(c2c1=O)CCC(C(C)(C)C)C3", "note": "(stereo not drawn)", "inhibition": "18.3%"},
      {"smiles": "CCc1cccc(C)c1NS(=O)(=O)c1c(C(=O)N2CCCCCC2)c(C)n(C)c1C", "inhibition": "9.04%"},
      {"smiles": "Cc1ccc(Cl)cc1N1CCN(C(=O)CN2C(=O)COc3ccc(S(=O)(=O)N4CCOCC4)cc32)CC1", "inhibition": "-2.73%"},
      {"smiles": "Cc1cc(C)c(Cn2c3ccccc3c3cnn(CC(=O)NCCc4ccccc4)c(=O)c32)c(C)c1", "inhibition": "-10.4%"},
      {"smiles": "O=C(NCc1ccc(F)cc1)c1ccc(CSc2nc3ccncc3n2Cc2ccc(F)cc2)cc1", "inhibition": "18.2%"},
      {"smiles": "CCOC(=O)c1c(Nc2cccc(O)c2)nnc(-c2ccccc2)c1-c1ccccc1", "inhibition": "-21.2%"},
      {"smiles": "COc1ccc(C(=O)N(Cc2sccc2C)C2CCS(=O)(=O)C2)cc1Cl", "note": "(stereo not drawn)", "inhibition": "6.51%"},
      {"smiles": "Cc1cc(=O)n2c(C(=O)Nc3ccc(C)c(Cl)c3)c(C(=O)Nc3ccccc3)sc2n1", "inhibition": "-9.02%"},
      {"smiles": "CCN1CCN(C(=O)c2ccc3c(c2)N(Cc2ccc(Cl)cc2)C(=O)c2ccccc2S3(=O)=O)CC1", "inhibition": "8.9%"},
      {"smiles": "Cc1cc(C)c(S(=O)(=O)Nc2cc(-c3cn4ccccc4n3)ccc2C)cc1C", "inhibition": "-11.8%"},
      {"smiles": "O=C(NCc1ccc2c(c1)OCO2)c1ccc2c(c1)N(Cc1cccc(Cl)c1)C(=O)c1ccccc1S2", "inhibition": "21.1%"},
      {"smiles": "Cc1ccc(C(=O)c2sc(Nc3ccccc3F)c(S(=O)(=O)c3ccccc3)c2N)c(C)c1", "inhibition": "-11.5%"},
      {"smiles": "O=C(Cn1ncc2c([nH]c3ccccc32)c1=O)Nc1cc(F)ccc1F", "inhibition": "-13.7%"},
      {"smiles": "Cc1cccc(N2CCN(C(=O)C3CCN(S(=O)(=O)c4c(C)noc4/C=C/c4ccccc4F)CC3)CC2)c1C", "inhibition": "6%"},
      {"smiles": "CCC1CN(S(=O)(=O)c2cc(-c3cc(C)no3)ccc2OC)c2cc(C)ccc2O1", "note": "(stereo not drawn)", "inhibition": "-1.16%"},
      {"smiles": "COc1ccc(OC)c(CNC(=O)C2CCN(S(=O)(=O)c3cn(C)cn3)CC2)c1", "inhibition": "7.48%"},
      {"smiles": "COc1cc(Cl)c(C)cc1NC(=O)c1cc(CN2CCOCC2)on1", "inhibition": "0.249%"},
      {"smiles": "CCc1ccc(NC(=O)CCS(=O)(=O)c2ccc3c(c2)CCN3C(C)=O)cc1", "inhibition": "12.3%"},
      {"smiles": "CCc1ccccc1NC(=O)Nc1cc(C(=O)NCc2ccc(C(C)C)cc2)ccc1N1CCCC1", "inhibition": "13.8%"},
      {"smiles": "Cc1cc(NC(=O)c2ccc3c(c2)N(Cc2cccc(Cl)c2)C(=O)c2ccccc2S3=O)ccc1Br", "note": "(stereo not drawn)", "inhibition": "-2.2%"},
      {"smiles": "Cc1ccc(S(=O)(=O)c2cn(Cc3ccccc3F)c3cc4c(cc3c2=O)OCO4)cc1", "inhibition": "-16.6%"}
    ]}
  ]
}
